# Reference: the supplement of paper PMC11417369
# ± gives the standard deviation of the averaged measurements. The list shows a part of the results.
# Tested on: PfAP2-LT AP2 domain (GST-tagged)
# Assay: gcPBM binding intensity (ln(normalized median fluorescence intensity)); higher = stronger DNA binding
# How it was run: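 Probes on an Agilent 4 × 180k array were primer-extended, double-stranded and 36 bp long, taken from intergenic genomic regions, with negative controls added. GST-tagged P. falciparum DNA-binding domains from E. coli, about 25 μg on average, were applied to the array for 1 h in 1× PBS containing 1% milk, 0.2 mg/ml BSA, 0.5% salmon testes DNA and 0.03% Triton X-100. Binding intensity, obtained after Alexa488 anti-GST antibody detection and a 488 nm scan, is the highest Masliner-normalised natural-log median intensity across replicate spots of either probe orientation.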
row,Sequence,gcPBM binding intensity (ln)
1,TAAATACAGATATATACACACATATATATATTTTAT [CACACA_site5970],9.12 ± 0.35
2,ATAAAAAAGAAACAAACACACATACATACAAACAAA [CACACA_site4256],9.47 ± 0.33
3,CTTTTGTCATTCTTTTGTACACAGTTTGAAATATGT [XGTACX_site1457],9.09 ± 0.54
4,AAATAGAGAAATACAAGTACATATCAAACCAATATA [XGTACX_site1192],9.04 ± 0.47
5,ATAATAAATAAATAATGTACATATGAAAGAATAAAT [XGTACX_site8355],9.11 ± 0.53
6,ATTCTTTTAAAATAGGTGCTAAAAATAATATGTTAC,8.54 ± 0.49
7,TTCACCAGTTGGTAAACATGCAATTTTCCATACAAG [TGCATGCA_site267],8.48 ± 0.39
8,AAAAAAAACGGACACACACACATACCCATACATACA [CACACA_site5574],10.1 ± 0.41
9,ATATAAATACATAAATGTACTTACCATTTAAATATG [XGTACX_site5254],8.79 ± 0.38
10,ATTATTTGTTTAATGAGTACGAAGACAAATTTTACC [XGTACX_site5223],8.63 ± 0.28
11,AAAGGAAAAAAAAGCACACACAATATTACTTGAAAT [CACACA_site2588],9.43 ± 0.38
12,GTACTATACAAAGATGATAATCAATATATATATATA [XGTACX_negctrl_site264],9.17 ± 0.45
13,TATATACACAGACACACACACACATACACGCACATA [CACACA_site6909],10.1 ± 0.22
14,AAAGAAAGAAGAAATTGTACATAATAAATAAGTAAA [XGTACX_site3311],8.79 ± 0.52
15,ATATAAACAATATTTTGTACATAATTTTATGAGCAT [XGTACX_site6933],8.62 ± 0.43
16,GCATATGTTTATTGCACACACCAAAAAGAAAACATA [CACACA_site4384],9.32 ± 0.36
17,AATATATTTTTTGGTTGTACAGAGATCTTTGTAGAA [XGTACX_site1707],8.44 ± 0.43
18,TTTTTATATTTAATGTGTCCTCACTTAAAAGGATGA [XGTACX_site2744],8.36 ± 0.47
19,TATAATAATTATACATGTACACATTATTTGGATAAA [XGTACX_site5552],8.65 ± 0.42

row,Sequence,gcPBM binding intensity (ln)
1,ATTCTCCAAGTTTGATGTACACATATGACGACGGCG [XGTACX_site4912],8.74 ± 0.45
2,AAAAATTATAGAAAAGTGCAATACATGTTACACCAT,8.67 ± 0.51
3,TACAATAAGGATAAGTGTACATATGTGCATACATAT [XGTACX_site7188],8.96 ± 0.35
4,CATATAGCATAATCATGTACACATACAACAAATAGG [XGTACX_site1589],9.05 ± 0.44
5,AAACTTGTAAGAAACACACACACACCCATATATATA [CACACA_site797],9.96 ± 0.15
6,AAATTGGGGCTTGTTACACACTTAGTGGGAGTTCTA [CACACA_site4485],9.01 ± 0.16
7,TATACCAGTTTTAAAAGTACTTGTGCATAAAAAATA [XGTACX_site4794],8.7 ± 0.38
8,TTACGATTATACAAAAGTACATGTATTACACAATAT [XGTACX_site5138],8.85 ± 0.35
9,TATATATATATATATACACACTATATAATTCAAACA [CACACA_site4712],9.47 ± 0.17
10,ATGAATAAATTAAAAATGCACACTTTGATGGGTACA [CACACA_site2157],8.88 ± 0.47
11,CTTTTTTGTTAAAGTGTGCGCAATAGTTATAGACTT [GTGCAC_site9670],8.87 ± 0.38
12,GTAAAAATAAAAACTGGTACACAAGTTGTTATAAAA [XGTACX_site502],8.77 ± 0.46
13,AACATGCTCAACTTTTTTTTTTTTTTTTTTTTTTTT [CACACA_negctrl_site1617],8.9 ± 0.24
14,AAAATAAAATAAAAGTGTACGTTTTAAGAACATTGA [XGTACX_site2382],8.68 ± 0.52
15,TATAATCAATATGTAACACACAAAAGTTATATACTT [CACACA_site7368],8.91 ± 0.34
16,AATCTTAAAAATATATGTACTAAAAAAAAAAAAAAT [XGTACX_site6195],8.53 ± 0.45
17,TAATAATAAAAATAAACACACATATATATGTATATA [CACACA_site2853],8.93 ± 0.34
18,AAATTATATTCAAGTGCATGTAACTTATTATTATAT [TGCATGCA_site526],8.71 ± 0.39
19,ATATTTATTTATTTATGTACGCACACAGTTGATATT [XGTACX_site5808],9.37 ± 0.4

row,Sequence,gcPBM binding intensity (ln)
1,CACTATATAAGAACCTGTACTCAATTTTGCAATATA [XGTACX_site7238],8.68 ± 0.49
2,TATATTTTCCTGCAAACACACATATAAATGTGTAGA [CACACA_site533],8.78 ± 0.3
3,ATAAAAAGGAGACACACACACACACGCATATTTATA [CACACA_site6551],10.3 ± 0.26
4,TATATTAAACCATGTAGTACCTTGAATAAATATTAT [XGTACX_site8254],8.63 ± 0.54
5,AAAAAAAAATACATATGTACTTATGTATAATGTTGT [XGTACX_site8104],8.84 ± 0.47
6,ATTATACCACCCGATATACACACTTGTAGACATCTT [CACACA_site7944],9.04 ± 0.41
7,CATGTTATGATTCCATGTACTTATAGCATTAAAAAA [XGTACX_site8939],8.39 ± 0.4
8,TTTTTTTAATTAGTTTGTACATATTGTTATAATATA [XGTACX_site6294],8.7 ± 0.52
9,AAGTTACAAAATCAAAAGGAAAAAATATAAAATAAT [CACACA_negctrl_site561],8.67 ± 0.55
10,CAAGAAAATTGACACACACACATATTTATATTTATA [CACACA_site7766],9.68 ± 0.39
11,AACATATATATATATACATGCATATGAACAACGAAT [TGCATGCA_site93],9.25 ± 0.38
12,TATAAAAATGTTTACACACACACATAAATATATTTT [CACACA_site2512],9.39 ± 0.43
13,TTTTTTTTTTTTCTGAGTACGAAAAATAGAGATAGA [XGTACX_site3825],8 ± 0.35
14,TGTATAAATATAATCACACATATATATATATATATA [CACACA_site4365],9.79 ± 0.27
15,ATCACATATATATATAATATATATATGTATATATTT [GTGCAC_negctrl_site249],8.65 ± 0.37
16,ATATATATATATATATGTACATATATTTTTATTTAT [XGTACX_site3508],9.435 ± 0.0071
17,AAAAAAAATATATATGCACACACAAAAAAACAAATT [CACACA_site8349],9.48 ± 0.37
18,CAACTAATATTAAAACGTACATAAATATTTAACAGA [XGTACX_site625],8.74 ± 0.5
19,TATACCTTTTTATTCACACATATATGTCATATGTCA [CACACA_site5423],9.28 ± 0.5
